In PubChem BioAssay AID488969 (Vanderbilt High Throughput Screening Facility, 2010) one finds z-score data, which are given here for 70 molecules.

Molecules are shown by their SMILES. In all, about 110,000 compounds were measured (“z-score”: median about -0.1, highest 2% from about 2 on). The list shows a part of the results.

The test has as its target Metabotropic glutamate receptor 8 (Rattus norvegicus) (UniProt P70579). Put plainly: rat mGluR8 modulators via GIRK flux, primary screen, cell-based, thallium flux, HTS (AID 488969). As to conditions: HEK293 rat mGluR8, GIRK (G protein-gated inwardly rectifying potassium channel) thallium flux, FluoZin2; at 10 µM; stronger effect = higher value; submaximal glutamate (EC20) added with thallium.
Chain of UniProt P70579 (P70579 whole entry, looked up): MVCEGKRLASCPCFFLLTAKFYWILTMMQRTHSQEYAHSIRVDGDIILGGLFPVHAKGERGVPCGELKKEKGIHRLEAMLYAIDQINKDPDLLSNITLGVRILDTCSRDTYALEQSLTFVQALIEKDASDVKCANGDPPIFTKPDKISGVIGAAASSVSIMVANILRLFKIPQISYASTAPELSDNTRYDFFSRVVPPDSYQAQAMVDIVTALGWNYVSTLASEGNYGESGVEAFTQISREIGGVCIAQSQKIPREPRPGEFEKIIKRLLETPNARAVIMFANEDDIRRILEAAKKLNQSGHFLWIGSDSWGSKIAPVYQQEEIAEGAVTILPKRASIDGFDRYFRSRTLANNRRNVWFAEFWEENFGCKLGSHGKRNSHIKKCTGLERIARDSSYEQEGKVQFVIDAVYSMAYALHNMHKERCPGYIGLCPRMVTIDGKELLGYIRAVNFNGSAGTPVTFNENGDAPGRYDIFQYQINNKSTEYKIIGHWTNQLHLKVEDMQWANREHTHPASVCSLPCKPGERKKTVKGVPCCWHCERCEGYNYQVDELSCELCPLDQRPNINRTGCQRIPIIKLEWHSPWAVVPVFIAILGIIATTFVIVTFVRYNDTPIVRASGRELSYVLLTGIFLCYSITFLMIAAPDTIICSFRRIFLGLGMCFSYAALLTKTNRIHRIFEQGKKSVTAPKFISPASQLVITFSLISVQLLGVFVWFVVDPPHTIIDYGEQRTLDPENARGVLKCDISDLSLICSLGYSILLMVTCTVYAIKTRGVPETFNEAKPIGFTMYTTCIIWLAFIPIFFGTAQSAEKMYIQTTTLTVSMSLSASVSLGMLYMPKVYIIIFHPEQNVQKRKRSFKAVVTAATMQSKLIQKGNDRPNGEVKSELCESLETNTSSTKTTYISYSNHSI
On to `CCC(CC)c1nnc(NC(=O)c2cc(-c3ccccc3)nc3ccccc23)s1`, for which the z-score is -0.847. In the case of `CCn1c(CNC(=O)COC)nc2ccccc21` it was -0.318. The value for `O=c1/c(=C\c2ccc(O)cc2)sc2n1C(c1ccccc1)C(c1ccccc1)=NN=2` (stereo not given) was -0.706; that for `COc1ccc(-c2nsc3c(SCc4ccccc4)ncnc23)cc1` was -0.933; that for `CNCC/C=C1/c2ccccc2CSc2ccccc21` was 1.44. The value for `O=C1CSC(c2ccc3c(c2)OCO3)N1c1ccc(Oc2ccccc2)cc1` (stereo not given) was 0.205; that for `COc1ccc(/C(C)=N/Nc2ncc(Cl)cc2Cl)c(O)c1` was -0.165. Turning to `COc1ccc(N2CCN(C(=O)c3cc4c(-c5ccc(Cl)cc5)nn(C)c4s3)CC2)cc1`, the z-score is -0.384. Consider `COc1cc(CN(C)CC(=O)c2[nH]c(C)c(C(C)=O)c2C)ccc1OC(F)F`, for which the z-score is -0.206. In the case of `CCC1(C)Cc2c(sc3c2c(=O)n(C)c2nnc(SCc4ccccc4)n32)CO1` (stereo not given) it was -0.196; in that of `CCCCn1nnc(NC(=O)COc2cc(C)ccc2C(C)C)n1`, 1.04; in that of `CCOc1cc(/C=N/O)ccc1OCc1ccc([N+](=O)[O-])cc1`, 0.209. For `Cc1ccc(-c2cc(-c3ccccc3O)nc(N/N=C/c3cccnc3)n2)cc1`, the z-score was -0.278. The value for `COc1ccc(S(=O)(=O)N(CCCN2CCOCC2)Cc2ccc(OC)c(OC)c2)cc1` was -0.348; that for `CC(C)C(=O)NC(=S)NCC(=O)c1ccccc1` was -0.37. In the case of `Clc1ccc(-c2nnc(SCc3nc4ccccc4[nH]3)o2)c(Cl)c1` it was -0.09; in that of `CC(=O)c1sc(NC(=O)C(C)C)nc1C`, 0.531; in that of `COc1cc(OC)cc(C(=O)OCC(=O)Nc2ccc(N3CCCCC3)cc2)c1`, -0.189. In the case of `OCCn1c(-c2ccc3c(c2)OCO3)csc1=Nc1ccccc1` it was 0.143; in that of `Nc1nnc(SCC(=O)NC2CCCCC2)s1`, 0.00744; in that of `Cc1ccc(-c2cc(C(=O)Nc3ccccc3C)c3ccccc3n2)o1`, 0.279. On to `O=C(CSc1nccn1-c1ccc(F)cc1)NCc1ccc2c(c1)OCO2`, for which the z-score is -0.24. The value for `COc1ccc(NCc2nnc(SCC(=O)c3ccc(C)cc3)o2)cc1` was -0.148; that for `CC(NC(=O)CSc1nc2ccccc2c(=O)[nH]1)c1ccccc1` (stereo not given) was -0.0409. The value for `O=C1c2ccccc2C(=O)N1CC1CCCO1` (stereo not given) was -0.587. The value for `NC(=O)CSc1oc(-c2cccs2)nc1S(=O)(=O)c1ccccc1` was -0.275; that for `COc1ccc(CCN2C(=O)c3cccc4cccc(c34)C2=O)cc1OC` was 0.603; that for `O=C(Nc1ccc(S(=O)(=O)N2CCOCC2)cc1)c1ccco1` was -0.64. For the molecule `O=C(Nc1cccc(Cl)c1)N1CCN(c2ncccn2)CC1`, the z-score is -0.84.

Turning to `CC(C)(C)NS(=O)(=O)c1ccc(CCC(=O)Nc2cc(Cl)ccc2Oc2ccccc2)cc1`, the z-score was determined as 0.0264.

Turning to `Cc1c(C)c2cc(Cl)c(O)c(CN3CCCCC3)c2oc1=O`, the z-score was -0.309. On to `CCc1ccc(NC(=O)C(C)OC(=O)c2ccc(NS(=O)(=O)c3ccc(C)c([N+](=O)[O-])c3)cc2)cc1` (stereo not given), for which the z-score was -0.191.

On to `COc1ccc(NC(=O)C2C3C=CC(O3)C2C(=O)NCc2cccnc2)cc1` (stereo not given), for which the z-score was -0.947. In the case of `O=C(Nc1ccc(Cl)cc1)NC1CCCCC1` it was 0.269; in that of `CCN(CC)CCCn1c(=S)[nH]c2ncccc2c1=O`, 0.102. In the case of `COCCn1cnc2c1c(=O)n(CC(=O)Nc1cc(C)on1)c(=O)n2Cc1ccccc1` it was 0.148; in that of `COc1ccc(/C=N/NC(=O)c2[nH]nc3c2CCc2ccccc2-3)cc1OC`, -0.649. In the case of `Cc1ccc(C2C(C=Nc3c(C)n(C)n(-c4ccccc4)c3=O)=C(c3ccccc3)Oc3ccccc32)cc1` (stereo not given), the z-score was -0.137. On to `O=C(Nc1ccc(N2CCOCC2)cc1)Nc1ccc(Cl)c(Cl)c1`, for which the z-score stood at 0.145. `CCC(CC)c1nnc(NC(=O)COc2ccc3c(C)cc(=O)oc3c2)s1`: the z-score was -0.14. The value for `CC(C)=C(NC(=O)c1ccccc1)C(=O)N/N=C/c1ccc(O)cc1` was -0.419; that for `CCOc1ccccc1NC(=O)CN(C)S(=O)(=O)c1cccc2nsnc12` was -0.173. In the case of `CCN(CC(=O)Nc1ccc2c(c1)OCCO2)CC(=O)Nc1cc(C)on1` it was -0.0204.

`O=C(CCc1ccc(S(=O)(=O)NC2CCCCC2)cc1)Nc1ccccc1`: the z-score is 0.111. In the case of `COc1ccc(C=O)cc1COc1ccc(Cl)cc1[N+](=O)[O-]` it was -0.077; in that of `CCOC(=O)C1CCCN(C(=O)Cn2sc3nc(C)cc(C)c3c2=O)C1` (stereo not given), 2.2.

With `Cc1cc(C)nc(-n2nc(C)c(Sc3ccc(F)cc3)c2N)n1`, the z-score is -1.19. As for `Cc1cc(C)cc(N(C(=O)c2sc(C)nc2C)C(C(=O)NCc2ccco2)c2ccccc2)c1` (stereo not given), the z-score is -0.165. In the case of `Cc1cc(NC(=O)c2ccc(Cn3nc(C)c(Br)c3C)o2)no1` it was -0.686. The value for `COc1cc(S(=O)(=O)N(CCc2ccccc2)Cc2cccs2)ccc1-n1cnnn1` was 0.146; that for `CCCNC(=O)N(C)c1nncnc1C(=O)NC` was 0.0642; that for `Cn1c(=O)c(C(=O)CSc2nnc(Nc3ccccc3)s2)c(N)n(Cc2ccccc2)c1=O` was -0.199. For the molecule `CN(Cc1ccccc1)c1nc2c(c(=O)[nH]c(=O)n2C)n1C`, the z-score is 0.107. The value for `CC(=O)C1=C(C)NC(SCC(=O)c2ccc(Cl)cc2Cl)=C(C#N)C1c1ccco1` (stereo not given) was -2.68; that for `CC(C(=O)N1CCc2ccccc21)N1CCc2ccccc2C1` (stereo not given) was -0.627; that for `COC(=O)c1ccc(COC(=O)c2ccc(SC)cc2OC)cc1` was -0.178.

Regarding `O=C(O)C1C2C=CC(C2)C1C(=O)NCc1ccoc1` (stereo not given), the z-score was -0.258.

Consider `c1ccc(Oc2nnc(-c3cccs3)c3ccccc23)cc1`, for which the z-score was -0.0698.

In turn, `Cc1ccc(Cl)cc1NC(=O)COC(=O)c1ccc(COc2ccc3c(C)cc(=O)oc3c2)cc1` registered a z-score of 0.734.

In turn, `CCN1CCN(c2ccc(NC(=O)COc3ccccc3Cl)cc2)CC1` gave a z-score of 0.599.

For `CCCN(CCC)C(=O)CSc1nc2ccsc2c(=O)n1NC(=O)c1ccccc1`, the z-score stood at 0.146.

As for `CCn1c(SCc2nc3ccccc3s2)nnc1-c1cccs1`, the z-score is 0.633. The value for `Cc1nc(NC(=O)CC(C)C)sc1-c1csc(Nc2ccc(Cl)cc2)n1` was 0.0734; that for `CC1CC(=O)c2cnc(N)nc2C1` (stereo not given) was -0.0715. The value for `CCOC(=O)C1CCCN(C(=O)c2cn(CC)c3ccc(S(=O)(=O)N(C)C)cc3c2=O)C1` (stereo not given) was -0.191; that for `CCOC(=O)N1CCN(C(=O)CCSc2ccc(Cl)cc2)CC1` was -0.00941. In the case of `Cc1c(/C=C/C(=O)c2ccc(O)cc2)cnn1C` it was 0.00575; in that of `COc1ccc(NC(=O)c2ccccc2[N+](=O)[O-])cc1`, -0.084; in that of `COc1ccc(Cl)cc1NC(=O)c1ccco1`, -0.426. As to `O=C(ONC1=NCCCCC1)c1ccc(Cl)cc1`, the z-score is 0.263.
